Results from the supplement of paper PMC8728848.
The other results are listed elsewhere or left out.

What was measured:
Assay in all cases: glycan array binding signal (z-score within array); higher = stronger binding
Conditions in all cases: glycan notation: IUPAC condensed, linker removed
[1] = target: 3dGal(b1-3)[Fuc(a1-4)]Glc
How it was run: (§1)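 Negative Z-scores can be read as non-binding. The Z-score is calculated within each array and then averaged across arrays of one protein sequence at different concentrations or buffers and across linkers. Arrays, 3228 in all, were curated from the Consortium for Functional Glycomics database and kept only where the protein sequence was available.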

3dGal(b1-4)Glc = target: 3dGal(b1-4)Glc
How it was run: as §1

[2] = target: 4d8dNeu5Ac(a2-3)Gal(b1-4)Glc
How it was run: as §1

[3] = target: 4dNeu5Ac(a2-3)Gal(b1-4)Glc
How it was run: as §1

[4] = target: 7dNeu5Ac(a2-3)Gal(b1-4)Glc
How it was run: as §1

[5] = target: 8dNeu5Ac(a2-3)Gal(b1-4)Glc
How it was run: as §1

[6] = target: 9dNeu5Ac(a2-3)Gal(b1-4)Glc
How it was run: as §1

[7] = target: Ara(a1-5)Ara(a1-5)Ara(a1-5)Ara(a1-5)Ara(a1-5)Ara
How it was run: as §1

[8] = target: Ara(a1-5)Ara(a1-5)Ara(a1-5)Ara(a1-5)Ara(a1-5)Ara(a1-5)Ara
How it was run: as §1

Fuc(a1-2)Gal = target: Fuc(a1-2)Gal
How it was run: as §1

Fuc(a1-2)Gal(b1-3)GalNAc = target: Fuc(a1-2)Gal(b1-3)GalNAc
How it was run: as §1

[9] = target: Fuc(a1-2)Gal(b1-3)GalNAc(a1-3)[Fuc(a1-2)]Gal(b1-4)Glc
How it was run: as §1

[10] = target: Fuc(a1-2)Gal(b1-3)GalNAc(a1-3)[Fuc(a1-2)]Gal(b1-4)GlcNAc
How it was run: as §1

[11] = target: Fuc(a1-2)Gal(b1-3)GalNAc(b1-3)Gal
How it was run: as §1

[12] = target: Fuc(a1-2)Gal(b1-3)GalNAc(b1-3)Gal(a1-4)Gal(b1-4)Glc
How it was run: as §1

[13] = target: Fuc(a1-2)Gal(b1-3)GalNAc(b1-4)[Neu5Ac(a2-3)]Gal(b1-4)Glc
How it was run: as §1

Fuc(a1-2)Gal(b1-3)GlcNAc = target: Fuc(a1-2)Gal(b1-3)GlcNAc
How it was run: as §1

[14] = target: Fuc(a1-2)Gal(b1-3)GlcNAc(b1-2)Man(a1-3)[Fuc(a1-2)Gal(b1-3)GlcNAc(b1-2)Man(a1-6)]Man(b1-4)GlcNAc(b1-4)GlcNAc
How it was run: as §1

[15] = target: Fuc(a1-2)Gal(b1-3)GlcNAc(b1-2)Man(a1-3)[Fuc(a1-2)Gal(b1-3)GlcNAc(b1-2)Man(a1-6)]Man(b1-4)GlcNAc(b1-4)[Fuc(a1-6)]GlcNAc
How it was run: as §1

[16] = target: Fuc(a1-2)Gal(b1-3)GlcNAc(b1-3)Gal(b1-4)Glc
How it was run: as §1

[17] = target: Fuc(a1-2)Gal(b1-3)GlcNAc(b1-3)GalNAc
How it was run: as §1

[18] = target: Fuc(a1-2)Gal(b1-3)GlcNAc(b1-3)[Fuc(a1-2)Gal(b1-3)GlcNAc(b1-6)]GalNAc
How it was run: as §1

[19] = target: Fuc(a1-2)Gal(b1-3)GlcNAc(b1-3)[Fuc(a1-3)[Gal(b1-4)]GlcNAc(b1-6)]Gal(b1-4)Glc
How it was run: as §1

[20] = target: Fuc(a1-2)Gal(b1-3)GlcNAc(b1-3)[Gal(b1-4)GlcNAc(b1-6)]Gal(b1-4)Glc
How it was run: as §1

[21] = target: Fuc(a1-2)Gal(b1-3)GlcNAc(b1-3)[Neu5Ac(a2-6)Gal(b1-4)GlcNAc(b1-6)]Gal(b1-4)Glc
How it was run: as §1

[22] = target: Fuc(a1-2)Gal(b1-3)GlcNAc6S
How it was run: as §1

[23] = target: Fuc(a1-2)Gal(b1-3)[Fuc(a1-4)]GlcNAc
How it was run: as §1

[24] = target: Fuc(a1-2)Gal(b1-3)[Fuc(a1-4)]GlcNAc(b1-2)Man(a1-3)[Fuc(a1-2)Gal(b1-3)[Fuc(a1-4)]GlcNAc(b1-2)Man(a1-3)]Man(b1-4)GlcNAc(b1-4)GlcNAc
How it was run: as §1

[25] = target: Fuc(a1-2)Gal(b1-3)[Fuc(a1-4)]GlcNAc(b1-2)Man(a1-3)[Fuc(a1-2)Gal(b1-3)[Fuc(a1-4)]GlcNAc(b1-2)Man(a1-6)]Man(b1-4)GlcNAc(b1-4)GlcNAc
How it was run: as §1

[26] = target: Fuc(a1-2)Gal(b1-3)[Fuc(a1-4)]GlcNAc(b1-2)Man(a1-3)[Fuc(a1-2)Gal(b1-3)[Fuc(a1-4)]GlcNAc(b1-2)Man(a1-6)]Man(b1-4)GlcNAc(b1-4)[Fuc(a1-6)]GlcNAc(b1-4)[Fuc(a1-6)]GlcNAc
How it was run: as §1

B1: CLEC5A (Homo sapiens), Q9NY25 (protein)
chain: MNWHMIISGLIVVVLKVVGMTLFLLYFPQIFNKSNDGFTTTRSYGTVSQIFGSSSPSPNGFITTRSYGTVCPKDWEFYQARCFFLSTSESSWNESRDFCKGKGSTLAIVNTPEKLKFLQDITDAEKYFIGLIYHREEKRWRWINNSVFNGNVTNQNQNFNCATIGLTKTFDAASCDISYRRICEKNAK
For B1, the “glycan array binding signal (z-score)” value [1] was -0.32, the “glycan array binding signal (z-score)” value (3dGal(b1-4)Glc) was -0.32 and the “glycan array binding signal (z-score)” value [2] was -0.32. For the same binder, the “glycan array binding signal (z-score)” value [3] was -0.32, the “glycan array binding signal (z-score)” value [4] was 1.51 and the “glycan array binding signal (z-score)” value [5] was -0.32. The “glycan array binding signal (z-score)” value [6] was -0.32, the “glycan array binding signal (z-score)” value [7] was 0.258 and the “glycan array binding signal (z-score)” value [8] was 0.162. The “glycan array binding signal (z-score)” value (Fuc(a1-2)Gal) was -0.17, the “glycan array binding signal (z-score)” value (Fuc(a1-2)Gal(b1-3)GalNAc) was -0.25 and the “glycan array binding signal (z-score)” value [9] was -0.276. For the same binder, the “glycan array binding signal (z-score)” value [10] was -0.243, the “glycan array binding signal (z-score)” value [11] was 0.222 and the “glycan array binding signal (z-score)” value [12] was 0.089. The “glycan array binding signal (z-score)” value [13] was -0.178, the “glycan array binding signal (z-score)” value (Fuc(a1-2)Gal(b1-3)GlcNAc) was -0.219 and the “glycan array binding signal (z-score)” value [14] was 0.119. The “glycan array binding signal (z-score)” value [15] was -0.121, the “glycan array binding signal (z-score)” value [16] was -0.205 and the “glycan array binding signal (z-score)” value [17] was -0.081. The “glycan array binding signal (z-score)” value [18] was -0.056, the “glycan array binding signal (z-score)” value [19] was 0.22 and the “glycan array binding signal (z-score)” value [20] was -0.202. The “glycan array binding signal (z-score)” value [21] was -0.149, the “glycan array binding signal (z-score)” value [22] was -0.112 and the “glycan array binding signal (z-score)” value [23] was -0.289. For the same binder, the “glycan array binding signal (z-score)” value [24] was 0.282, the “glycan array binding signal (z-score)” value [25] was 0.798 and the “glycan array binding signal (z-score)” value [26] was -0.042.
